This is one part of the list.
These compounds were tested on S. aureus RN4220 (assay: growth inhibition call (relative growth <= 0.2)). Settings: 50 µM.

Growth inhibition call, inactive:
C[C@@H]1CCCCO[C@@H](CN(C)CC2CCCCC2)[C@@H](C)CN([C@@H](C)CO)C(=O)c2cc(NS(=O)(=O)c3ccc(Cl)cc3)ccc2O1
COc1ccc(S(=O)(=O)Nc2ccc3c(c2)C(=O)N([C@H](C)CO)C[C@H](C)[C@H](CN(C)Cc2ccc(C(F)(F)F)cc2)OCCCC[C@H](C)O3)cc1
C[C@@H]1CCCCO[C@@H](CN(C)Cc2ccc(C(=O)Nc3ccccc3N)cc2)[C@@H](C)CN([C@H](C)CO)C(=O)c2cc(NC(=O)c3ccccc3)ccc2O1
C[C@H]1CN([C@@H](C)CO)C(=O)CCCn2cc(nn2)CO[C@H]1CN(C)S(=O)(=O)c1ccc(-c2ccccc2)cc1
COc1ccc(C#Cc2ccc3c(c2)O[C@H](CN(C)S(=O)(=O)c2ccccc2F)[C@H](C)CN([C@@H](C)CO)S3(=O)=O)cc1
C[C@@H]1CN([C@@H](C)CO)C(=O)c2cc(C3=CCCCC3)cnc2O[C@@H]1CN(C)C(=O)CN1CCOCC1
COc1ccc(NC(=O)N(C)C[C@H]2OCCCC[C@H](C)Oc3ccc(NC(=O)Nc4ccc5c(c4)OCO5)cc3C(=O)N([C@@H](C)CO)C[C@H]2C)cc1
CN1CCCN=C1COC(=O)C(O)(c1ccccc1)C1CCCCC1.Cl (stereo not given)
C[C@@H]1CN([C@@H](C)CO)C(=O)c2cc(NC(=O)c3ccccc3)ccc2O[C@@H](C)CCCCO[C@@H]1CN(C)Cc1ccc(C(F)(F)F)cc1
CCC(=O)NCc1nc(C)cc(N(C)C)n1

— the antibiotic and cytotoxicity screens of Wong et al. (2023)
